We go through one molecule from US20240270843A1, “TREM2 AGONIST BIOMARKERS AND METHODS OF USE THEREOF” (Vigil Neuroscience, Inc., priority 2021, published 2024).

Data set [1] can be described thus: Single IV or IT dose of Ab-1 in Cynomolgus monkeys: tolerability and CSF penetration. The class given is in vivo. Conditions: single IV 2, 20, 200 mg/kg; single IT 0.2 or 2 mg/animal. On the procedure: (§1) Ab-1, a TREM2 agonist targeting microglia in the brain, was administered either intravenously (IV) or intrathecally (IT) in a single dose to Cynomolgus monkeys. Free Ab-1, chemokine, and soluble Colony-Stimulating Factor 1 Receptor (sCSF1R) analysis in CSF samples was conducted.
(§2) The test article was administered once on Day 1 via IV injection (Groups 1 to 3) or IT administration (Groups 4 and 5). The dose levels were 2, 20 and 200 mg/kg via IV injection at a dose volume of 2.0 and 2.5 mL/kg or 0.2 and 2 mg/animal via IT administration at a dose volume of 1.5 mL. Individual doses were based on the most recent body weights for IV administration. Each group consisted of four subjects, two male and two female. Table 8 outlines the overall experimental design and dosage levels.
(§3) CSF samples (0.25 mL) were collected from all animals via the IT port for Chemokine and sCSF1R analyses. A target volume of CSF (0.25 mL) was collected at time points Day −2, 4 hrs, 12 hrs, 24 hrs, 32 hrs, 48 hrs, 72 hrs, 96 hrs and 168 hrs. The port was positive pressure locked with aCSF or sterile PBS post collection. CSF samples were collected and placed on wet ice. All aliquots were stored frozen at −60° C. to −90° C.

For data set [2], the system named is TREM2. Put plainly: Exposure response of CSF sCSF1R, IP-10 and MCP-1 to Ab-1 in Cynomolgus monkeys (Simoa-based immunoassay). The settings on record: single IV or IT dose. The class given is in vivo. How it is done:
as §1, §2, §3
CSF samples were measured for free Ab-1, sCSF1R, IP-10, and MCP-1 concentrations as a function of time. sCSF1R, IP-10, and MCP-1 concentrations were determined using a Simoa-based immunoassay protocol. The concentration of sCSF1R, IP-10, and MCP-1 were plotted versus time. The change-from-baseline (CFB) concentration of sCSF1R was also plotted against free Ab-1 concentration. The change-from-baseline (CFB) concentration of sCSF1R plotted vs. the concentration of Ab-1 is shown in FIG. 3, as a combination of all data points, and in FIG. 4, where the data is broken up by time point, post-dose.

B1: Ab-1: anti-hTREM2 agonist antibody; light chain SEQ ID NO: 13, heavy chain SEQ ID NO: 16 (antibody)
heavy: EVQLVQSGAEVKKPGESLKISCKGSGYSFTSYWIGWVRQMPGKGLEWMGIIYPGDADARYSPSFQGQVTISADKSISTAYLQWSSLKASDTAMYFCARRRQGIFGDALDFWGQGTLVTVSSASTKGPSVFPLAPSSKSTSGGTAALGCLVKDYFPEPVTVSWNSGALTSGVHTFPAVLQSSGLYSLSSVVTVPSSSLGTQTYICNVNHKPSNTKVDKKV[not shown - human IgG1 Fc with R292C N297G V302C (EU numbers)]
light: EIVMTQSPATLSVSPGERATLSCRASQSVSSNLAWFQQKPGQAPRLLIYGASTRATGIPARFSGSGSGTEFTLTISSLQPEDFAVYYCLQDNNFPPTFGQGTKVDIKRTVAAPSVFIFPPSDEQLKSGTASVVCLLNNFYPREAKVQWKVDNALQSGNSQESVTEQDSKDSTYSLSSTLTLSKADYEKHKVYACEVTHQGLSSPVTKSFNRGEC
With B1, in data set [1], the CSF penetration result is given as “penetrate the CSF to a reasonable degree” and the Tolerability result was “well tolerated”. Besides, in data set [2], the “Exposure-response between IP-10 and free Ab-1 in CSF” value was “No significant exposure-response”; the “Exposure-response between MCP-1 and free Ab-1 in CSF” value is reported as “No significant exposure-response”. The “Exposure-response of sCSF1R change-from-baseline vs Ab-1 concentration in CSF” value in data set [2] (by post-dose time point) was “most pronounced at earlier timepoints (<24 hours) with a flat exposure response at later timepoints”.
